According to publication PMC4336329 (PLoS ONE, 2015):
Screen size: about 310,000 compounds; about 2,200 (0.71%) showed an effect of 50% or more. Effects have a minus sign here. The list shows a part of the results.

These compounds were tested against human ether-à-go-go-related gene (hERG) potassium channel (human, UniProt Q12809) (assay: primary screen, population patch clamp on CHO cells stably expressing hERG).
Chain of human ether-à-go-go-related gene (hERG) potassium channel (Q12809 whole entry, looked up): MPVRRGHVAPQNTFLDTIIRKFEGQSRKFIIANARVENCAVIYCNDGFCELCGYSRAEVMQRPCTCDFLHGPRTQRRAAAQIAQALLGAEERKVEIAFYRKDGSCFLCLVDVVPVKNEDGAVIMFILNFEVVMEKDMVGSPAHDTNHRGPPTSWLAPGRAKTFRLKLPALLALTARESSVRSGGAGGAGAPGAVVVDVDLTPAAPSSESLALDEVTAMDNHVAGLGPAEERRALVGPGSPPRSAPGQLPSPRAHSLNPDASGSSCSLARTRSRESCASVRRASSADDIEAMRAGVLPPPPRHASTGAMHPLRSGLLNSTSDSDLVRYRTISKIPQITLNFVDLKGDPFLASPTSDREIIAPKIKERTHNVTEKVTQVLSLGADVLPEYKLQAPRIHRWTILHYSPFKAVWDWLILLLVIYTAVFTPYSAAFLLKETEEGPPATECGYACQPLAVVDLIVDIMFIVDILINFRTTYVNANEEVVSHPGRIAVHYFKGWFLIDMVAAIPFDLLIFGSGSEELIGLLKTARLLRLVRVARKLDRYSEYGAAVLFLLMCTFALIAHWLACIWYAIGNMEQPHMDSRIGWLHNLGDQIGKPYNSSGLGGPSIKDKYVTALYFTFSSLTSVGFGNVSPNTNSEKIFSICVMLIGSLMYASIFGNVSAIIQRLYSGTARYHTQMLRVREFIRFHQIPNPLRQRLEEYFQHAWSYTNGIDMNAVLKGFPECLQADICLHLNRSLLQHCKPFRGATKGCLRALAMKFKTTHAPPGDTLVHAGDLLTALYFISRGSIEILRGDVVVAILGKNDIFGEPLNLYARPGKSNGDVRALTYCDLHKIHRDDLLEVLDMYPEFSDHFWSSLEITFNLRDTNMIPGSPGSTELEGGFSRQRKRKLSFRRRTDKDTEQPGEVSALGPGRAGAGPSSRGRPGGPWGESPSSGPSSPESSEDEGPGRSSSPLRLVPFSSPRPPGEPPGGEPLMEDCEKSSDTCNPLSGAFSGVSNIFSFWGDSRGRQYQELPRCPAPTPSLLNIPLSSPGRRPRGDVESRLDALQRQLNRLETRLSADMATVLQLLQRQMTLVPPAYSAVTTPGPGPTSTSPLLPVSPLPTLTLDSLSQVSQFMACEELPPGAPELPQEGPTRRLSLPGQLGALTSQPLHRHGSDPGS

Row | SMILES | hERG current change (%, negative = inhibition) at 1uM [%]
1 | O=S(=O)(c1ccc2ccccc2c1)N1CCCCCC1 | 15.5
2 | CCCCCCNC(=O)N[C@@H](Cc1ccc(O)cc1)C(=O)NCCC[C@H]1CN2C(=NC[C@H]2C)N1CC1CCC1 | 12.6
3 | COc1cc(-c2ccc3oc(-c4ccsc4)cc3c2)cc(OC)c1OC | 12.5
4 | Cc1[nH][nH]c(=O)c1N=Nc1ccc(F)cc1 | 13.5
5 | CCOc1ccc(CCNS(=O)(=O)c2ccc3c(c2)oc(=O)n3C)cc1OCC | 7.53
6 | Cc1cc(C)n2c(SCC(=O)NC3CCCCC3)nnc2n1 | 13.5
7 | CCOc1ccc(CCNC(=O)COC(=O)/C=C/c2ccccc2)cc1OCC | 11.5
8 | Cc1cc(C(C)(C)C)n2nc(C)c(-c3ccccc3)c2n1 | 6.99
9 | O=C(CNC(=O)c1ccc(Br)o1)Nc1cccc(-c2cnc3ccccc3n2)c1 | 0.414
10 | Cc1c(C(=O)N/N=C/c2ccoc2)cccc1[N+](=O)[O-] | 9.46
11 | COc1ccc(N2CCN(Cc3nc4c(c(=O)[nH]c(=O)n4C)n3Cc3cccc(Cl)c3)CC2)cc1 | 1.9
12 | Fc1ccc(N2CCN(C3=Nc4cccc5cccc3c45)CC2)cc1 | -69.4
13 | O=C(O)CC1OCC=C2CN3CCC45C6=CC(=O)C(=O)C([N+](=O)[O-])=C6NC4C1C2CC35 (centres unmarked) | 10.3
14 | COc1ccc(-c2csc(Nc3ccccc3)[n+]2Cc2ccccc2)cc1.[Br-] | 16.7
15 | CN(C)C=Nc1nonc1-c1ccccc1 | 2.8
16 | COc1cc(CCC(=O)OCC(=O)Nc2ccc(C)cc2Br)cc(OC)c1OC | 6.77
17 | CC(=O)c1cccc(-n2c(CCC(=O)O)ccc2-c2ccc(C)cc2)c1 | 12.4
18 | CCCCCCCCOC1OC(CO)C(O)C(O)C1NC(C)=O (centres unmarked) | 5.19
19 | CCOc1ccc(-n2nnnc2SCC(=O)c2ccccc2)cc1 | 5.5
20 | Cc1ccc(C(=O)O)cc1NC(=S)NCCc1ccccc1 | 10.6
21 | O=[N+]([O-])c1cccc(S(=O)(=O)N2CCCCC2c2cccnc2)c1 (centres unmarked) | -9.87
22 | CCOC(=O)N1CCN(CCC(=O)c2ccc(Cl)cc2)CC1.Cl | -16.7

Row | SMILES | hERG current change (%, negative = inhibition) at 1uM [%]
23 | COc1ccccc1CN1C(=NC(=O)C2CCCCC2)SC2CS(=O)(=O)CC21 (centres unmarked) | 14.8
24 | Cc1ccc(C2=NNC(=O)C(c3c[nH]c4ccccc34)C2)cc1 (centres unmarked) | 12.7
25 | CSc1ccc(/C=N\NC(=O)CC(=O)NC(C)C)cc1 | 10.7
26 | S=C(NCC1CCCO1)Nc1ccc(Cl)c(Cl)c1 (centres unmarked) | 11.2
27 | NNC(=O)c1cn2ccccc2n1 | 4
28 | COc1ccc(CCNC(=O)CSc2nncs2)cc1 | 13.7
29 | COc1ccc(CCNC(=O)CSc2nc(-c3ccco3)cc(C(F)(F)F)n2)cc1OC | -1.48
30 | CCOc1ccc(CCNC(=O)CCC(=O)N2CCOc3ccccc32)cc1OCC | 3.56
31 | COc1ccc(NC(=O)CSc2nnc(-c3ccncc3)o2)c([N+](=O)[O-])c1 | 13.9
32 | CCC(C)(C)NC(=O)C(Sc1ccccc1)c1ccccc1 (centres unmarked) | 12.3
33 | COc1ccc(CCN(C)C(=O)CN2C(=O)NC3(CCCc4ccccc43)C2=O)cc1OC (centres unmarked) | 21.7
34 | O=C(NCc1ccco1)c1ccc2c(=O)n(CC3CCCO3)c(=S)[nH]c2c1 (centres unmarked) | 4.98
35 | CC1(C)Cc2c(c(N3CCOCC3)nc3sc(-c4ccc(C(=O)O)o4)c(N)c23)CO1 | -12.7
36 | CCOC(=O)c1c(S(=O)(=O)N2CCCC(C)C2)c(C)n(C)c1C (centres unmarked) | 6.38
37 | CCOc1ccccc1NC(=O)CN(c1nccs1)S(=O)(=O)c1ccc(N)cc1 | 9.61
38 | O=C(N/N=C/c1ccc2c(c1)OCO2)c1ccccn1 | 8.97
39 | COC(=O)CNC(=O)C1Nc2ccccc2C2C=CCC12 (centres unmarked) | 1.16
40 | CC(NC(=O)Cn1nc(-c2ccccc2)ccc1=O)c1ccccc1 (centres unmarked) | 5.99
41 | Cc1nnc(SCCCN2C(=O)c3ccccc3C2=O)o1 | 1.63
42 | CCOCCCNC(=O)CCc1ccc(-n2cnc3cccnc32)cc1 | 12.4
43 | Cc1ccc(C2CC(=O)NC(SCc3ccccc3)=C2C#N)o1 (centres unmarked) | 2.19
44 | COc1ccc(OC)c(N(CC(=O)Nc2cccnc2)S(=O)(=O)c2ccc(C)cc2)c1 | 10.1
